Experimental data taken from PubChem BioAssay AID493208 (National Center for Advancing Translational Sciences (NCATS), 2011).
Screen size: about 44,000 compounds; about 340 (0.77%) were called active. Roughly 5% stayed inconclusive and do not appear here. The call rests on the fitted dose curve; in most records, active means well fitted inhibition curve with a large enough effect; inconclusive means small, poorly fitted or top-dose-only effect; inactive means flat fitted curve, though single readings scatter. Some of the results follow.

assay: Acumen qHTS Assay for Inhibitors of the mTORC1 Signaling Pathway in MEF (Tsc2-/-, p53-/-) Cells: Sytravon; settings: phospho-rpS6 immunofluorescence/PI, 24 h; series mostly up to 38.3 µM; activity change, negative = inhibition: at the top concentration; further: nearly all actives have a fitted effect of over 50% in size;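 on activity change, negative = inhibition: plate controls were DMSO for no effect and rapamycin for full effect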
How it was run: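 Tsc2-/-, p53-/- MEFs (empty-vector stable line) in DMEM + 10% FBS were treated with compounds 24 h at 37 degree Celsius, fixed, and immunostained for phospho-rpS6 (Alexa-488) with propidium iodide counterstain. Laser-scanning cytometry gave % positive cells, normalized against 7.5 nM rapamycin and DMSO.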
Potency means the concentration at half of the fitted maximal effect.

| Structure (SMILES) | activity change, negative = inhibition | Potency |
| --- | --- | --- |
| Cc1ccc(Nc2ncnc3c2nc2n3CCCC2)c(Br)c1 | inactive: -1.41% | – |
| COc1ccc(NC(=O)NCC2CCN(Cc3ccccc3F)CC2)c(OC)c1 | inactive: -0.629% | – |
| COc1ccc2nc(N(Cc3cccnc3)C(=O)COc3ccccc3)sc2c1 | inactive: 0.0053% | – |
| COC(=O)c1cc(S(=O)(=O)N2CCN(c3ccc(F)cc3)CC2)cn1C | inactive: 0% | – |
| COc1ccccc1CNC(=O)c1ccc2c(c1)CCN2S(=O)(=O)c1ccc(Cl)cc1 | inactive: -2.13% | – |
| Cn1cc(C(=O)NCCc2ccc(Cl)cc2)c(=O)c2cc(S(=O)(=O)N3CCCCC3)ccc21 | inactive: 2.93% | – |
| COC(=O)c1ccc(Cn2nnc3c(=O)[nH]c(C4CCCN(S(=O)(=O)c5ccccc5)C4)nc32)cc1 (stereo unspecified) | inactive: -4.88% | – |
| CCCC(CCC)C(=O)Nc1cccc(-c2nc3cccnc3s2)c1 | inactive: -0.611% | – |
| CCc1ccccc1NC(=O)N1CCC2(CC1)Oc1ccccc1C(=O)N2Cc1ccccc1F | inactive: -18.4% | – |
| COc1ccc(CCN2C(=O)N(c3ccc(F)cc3)C(=O)C2CC(=O)Nc2ccc(OC)cc2)cc1 (stereo unspecified) | inactive: -4.94% | – |
| CCOc1ccc(C(=O)NCC(c2ccc3c(c2)OCO3)N2CCN(c3ccc(F)cc3)CC2)cc1 (stereo unspecified) | inactive: 1.87% | – |
| CC(=O)Nc1ccc(NS(=O)(=O)c2ccc3[nH]c4c(c3c2)CCCCC4)cc1 | inactive: 5.05% | – |
| Cc1ccc(CN2CCN(C3CCN(C(=O)c4ccc(C)cc4)CC3)C(=O)C2=O)cc1 | inactive: -6.73% | – |
| CC1CCN(Cc2c(O)ccc3c(=O)c(-c4ccc(Cl)cc4)c(C(F)(F)F)oc23)CC1 | inactive: 1.93% | – |
| CC(C)(C)c1cc(C(C)(C)C)c2oc(=O)c(-c3nc4ccc(C(=O)O)cc4[nH]3)cc2c1 | inactive: -2.4% | – |
| COc1cc(OC)c(NC(=O)N2CCN3CCCCC3C2)cc1Cl (stereo unspecified) | inactive: -2.5% | – |
| CCOC(=O)c1ccccc1NC(=O)CSc1cc(C)[nH]c(=O)n1 | inactive: 0.0149% | – |
| COc1ccc(Cl)cc1NC(=O)CCN1C(=O)c2ccccc2Sc2ncccc21 | inactive: -7.13% | – |
| CC(=O)N1CCc2cc(S(=O)(=O)NC(CC(C)C)C(=O)NCCc3ccccc3)ccc21 (stereo unspecified) | inactive: 5.82% | – |
| CC(C)C(=O)N1c2nc(C(C)C)nn2C2(CCCCC2)[C@@H]2CCCC[C@@H]21 | inactive: -6.38% | – |
| Cc1ccc(Nc2nc3ccccc3c3nnc(C)n23)cc1Cl | inactive: 2.68% | – |

| Structure (SMILES) | activity change, negative = inhibition | Potency |
| --- | --- | --- |
| Cc1cc(C)c2c(=O)cc(CSc3nnc(-c4ccccc4)n3C)[nH]c2c1 | inactive: -13.5% | – |
| COc1cc(-c2nnc(SCC(=O)Oc3ccccc3)o2)cc(OC)c1OC | inactive: 1.06% | – |
| COc1ccc(OC)c(Nc2ncc3c(n2)CCN(Cc2cc(OC)c(OC)c(OC)c2)C3)c1 | inactive: 0% | – |
| CCc1ccccc1Nc1ncnc2c1cnn2-c1ccc(Cl)cc1 | inactive: -0.155% | – |
| CSCCC(NS(=O)(=O)c1cccs1)C(=O)Nc1ccc(C)c(Cl)c1 (stereo unspecified) | inactive: -2.37% | – |
| CCOc1ccc(CCNC(=O)c2ccc(CS(=O)(=O)c3ccccc3C)o2)cc1OCC | inactive: -7.07% | – |
| CC(=O)c1ccc(NC(=O)CSc2nnc(NC(=O)Nc3ccccc3)s2)cc1 | inactive: 3.1% | – |
| COc1ccc(Cl)cc1NC(=O)c1ncn(-c2ccccc2)n1 | inactive: -18.7% | – |
| COc1ccc(OC)c(NC(=O)Cc2c(C)n(C(=O)c3ccc(Cl)cc3)c3ccc(OC)cc23)c1 | inactive: -1.45% | – |
| CC(=O)c1cccc(NC(=O)CN2C(=O)c3cccnc3Sc3ccccc32)c1 | inactive: 10.9% | – |
| Cc1ccc(C)c(Cn2c(=O)n(Cc3ccco3)c(=O)c3oc4ccccc4c32)c1 | inactive: -5.04% | – |
| CCc1ccccc1NC(=O)c1sc2nc3n(c(=O)c2c1C)CCC3 | inactive: -19.6% | – |
| COc1cc(CN(C(=O)c2ccc(OC(C)C)cc2)C2CCS(=O)(=O)C2)cc(OC)c1OC (stereo unspecified) | inactive: 2.08% | – |
| Cc1ccccc1OCc1ccc(-c2nc(C#N)c(N3CCN(c4ccccc4)CC3)o2)o1 | inactive: -1.07% | – |
| O=C(NCCCc1nc2ccccc2n1Cc1ccccc1)C1CCCCC1 | inactive: 3.56% | – |
| CCOc1ccc(CNC(=O)c2ccc(NC(=O)N3CCSc4ncccc43)cc2)cc1OC | inactive: -11.2% | – |
| COc1cccc(Cn2c(C)c(CNCc3ccccc3Cl)c(C(=O)O)c2C)c1 | inactive: -2.52% | – |
| CN(C)c1cc2c(cc1NC(=O)c1ccc(F)cc1)n(C)c(=O)n2C | inactive: -12.9% | – |
| CCc1ccc(-c2cc(C)no2)cc1S(=O)(=O)Nc1ccc(C)cn1 | inactive: 4.99% | – |
| Cc1cccc(-c2nnn3c2nc(NCc2ccccc2)c2ccccc23)c1 | inactive: -3.06% | – |
| CNC(=O)C1CCN(Cc2cc3ccccc3n2Cc2cccc(C)c2)CC1 | inactive: 2.4% | – |

| Structure (SMILES) | activity change, negative = inhibition | Potency |
| --- | --- | --- |
| CC(C)CCNC(=O)C1CCN(S(=O)(=O)c2cccc3nsnc23)CC1 | inactive: -0.295% | – |
| O=C(C1CCC(Cn2c(=O)c3sccc3n(Cc3cccc(F)c3)c2=O)CC1)N1CCCCC1 (stereo unspecified) | inactive: -1.61% | – |
| O=C(NCCc1ccccc1)C(=O)NCC(c1cccnc1)N1CCN(c2ccccc2F)CC1 (stereo unspecified) | inactive: 3.55% | – |
| COc1ccccc1Nc1nn2c(=O)c3ccc(C(=O)NCc4ccc(F)cc4)cc3nc2s1 | inactive: -10.1% | – |
| COc1ccc(CCNC(=O)c2ccc(CS(=O)(=O)Cc3cccc(C)c3)o2)cc1OC | inactive: 5.39% | – |
| CCN1CCN(C(c2ccc(F)cc2)c2c(O)cc(C)n(CCOC)c2=O)CC1 (stereo unspecified) | inactive: 3.65% | – |
| CCc1cccc2c(-c3ccc(F)cc3)nc(SCC(=O)Nc3ccccc3)nc12 | inactive: -2.64% | – |
| COc1ccc(C(=O)Nc2ccc(-c3cc4ccccc4oc3=O)c(C)c2)cc1OC | inactive: -7.62% | – |
| CC(C)CCNC(=O)C1CCN(C(=O)N2CCOc3ccc(Cl)cc32)CC1 | inactive: 4.24% | – |
| COc1ccc(-c2n[nH]c3c2C(c2ccc(O)cc2)N(c2ccc(Br)cc2)C3=O)cc1 (stereo unspecified) | – | active: 14.7 µM |
| CSc1cccc(NC(=O)N2CCN(c3cc(-c4noc(C)n4)ccc3C)CC2)c1 | inactive: -12.2% | – |
| COc1cc(C2CC(=O)N(c3ccccc3)C3=C2C(=O)OC3)cc(OC)c1OC (stereo unspecified) | inactive: -3.83% | – |
| CCOC(=O)c1c(C)[nH]c(C)c1S(=O)(=O)N1CCCC(C(=O)Nc2ccc(F)cc2F)C1 (stereo unspecified) | inactive: -3.41% | – |
| C=C(C)CSc1nc2sc3c(c2c(=O)n1-c1ccccc1)CCC(C)C3 (stereo unspecified) | inactive: -5.34% | – |
| CCOc1ccc(NC(=O)CSc2cn(CC(=O)N3CCCCCC3)c3ccccc23)cc1 | inactive: -9.12% | – |
| COc1ccccc1CNc1ccc(-c2nc(-c3ccncc3)no2)cc1[N+](=O)[O-] | inactive: 0.355% | – |
| Cc1cc2ccccc2n1CCNC(=O)c1cccc(Cl)c1 | inactive: -2.45% | – |
| COc1ccc(CNC(=O)CC(c2ccc(OC)c(OC)c2)N2Cc3ccccc3C2=O)cc1 (stereo unspecified) | inactive: -0.595% | – |
| CCOc1ccc(NC(=O)CSC2=Nc3ccccc3C3=NC(CC(=O)NCc4ccco4)C(=O)N23)cc1 (stereo unspecified) | inactive: -4.06% | – |
